Test results published in the antibiotic and cytotoxicity screens of Wong et al. (2023).
Some of the results follow.

tested on: HSkMC (human skeletal muscle cells); assay: cytotoxicity call (relative viability < 0.9); conditions: 10 µM

Compound | cytotoxicity call
COCC(=O)Nc1ccc2c(c1)OC[C@@H](C)N(Cc1ccccc1F)C[C@H](C)[C@@H](OC)CN(C)C2=O | inactive
O=C(NO)c1cccc(C(=O)N/N=C/[C@H](O)[C@@H](O)[C@@H](O)[C@H](O)C(=O)O)c1 | inactive
C[C@H](CO)N1C[C@H](C)[C@H](CN(C)Cc2ccc(Oc3ccccc3)cc2)Oc2ccc(NC(=O)Cc3cn(C)c4ccccc34)cc2CC1=O | inactive
O=C(O)Cn1c(=O)oc2ccccc21 | inactive
O=C(O)/C=C(\CC(=O)O)C(=O)O | inactive
COc1ccccc1-c1ccc2c(c1)O[C@@H](CN(C)C(=O)c1ccncc1)[C@H](C)CN([C@H](C)CO)S2(=O)=O | inactive
C[C@H]1CN([C@@H](C)CO)C(=O)c2cc(Br)cnc2O[C@@H]1CN(C)S(=O)(=O)c1cn(C)cn1 | inactive
CO[C@H]1CN(C)C(=O)c2ccc(NS(C)(=O)=O)cc2OC[C@H](C)N(C(=O)C2CCOCC2)C[C@@H]1C | inactive
CNC[C@@H]1Oc2ccc(NS(=O)(=O)c3cn(C)cn3)cc2CC(=O)N([C@H](C)CO)C[C@H]1C | inactive
Cc1ccc(S(=O)(=O)N(C)C[C@H]2Oc3ccc(NC(=O)Nc4ccc(C(F)(F)F)cc4)cc3C(=O)N([C@@H](C)CO)C[C@@H]2C)cc1 | inactive
C[C@@H]1CN([C@H](C)CO)C(=O)c2cccc(NS(C)(=O)=O)c2O[C@H]1CN(C)Cc1ccc(C(F)(F)F)cc1 | inactive
CC[N+](CC)(CC)CCOc1cccc(OCC[N+](CC)(CC)CC)c1OCC[N+](CC)(CC)CC.[I-].[I-].[I-] | inactive
